Laboratory results: the supplement of paper PMC9446081
Among all 39,000 compounds or so, about 220 (0.56%) showed activity. Some of the results follow.

Each compound was assayed on Escherichia coli K-12 BW25113 (assay: relative growth (OD600 normalised to plate interquartile mean) (fraction); higher = less growth inhibition, active = 0.2 or less). Details: 50 µM; LB; incubation time: overnight (16-24 h).
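Note: static incubation at 37 °C against the wild-type strain, values averaged over two biological replicates.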

Structure (SMILES)	relative growth
Cc1noc(C)c1S(=O)(=O)N(C)C[C@H]1OCCCC[C@@H](C)Oc2ccc(NS(C)(=O)=O)cc2C(=O)N([C@@H](C)CO)C[C@@H]1C	inactive: 1.01
C[C@H]1CCCCO[C@H](CN(C)S(=O)(=O)c2ccc(Cl)cc2)[C@@H](C)CN([C@@H](C)CO)C(=O)c2cc(NC(=O)Nc3ccc(F)cc3)ccc2O1	inactive: 1.04
C=C1C(=O)O[C@@H]2[C@H]3C(=CO[C@@H]4O[C@H](CO)[C@@H](O)[C@H](O)[C@H]4O)CC(=O)C3=C(C)CC[C@@H]12	inactive: 1
Cn1cncc1C#N	inactive: 0.984
C[C@H]1CCCCO[C@H](CN(C)C(=O)Nc2ccccc2)[C@@H](C)CN([C@@H](C)CO)C(=O)c2cc(NS(=O)(=O)c3ccccc3)ccc2O1	inactive: 1.04
C[C@@H]1CN([C@H](C)CO)C(=O)c2cc(NC(=O)CCN3CCOCC3)ccc2O[C@H]1CN(C)Cc1ccc(C(=O)O)cc1	inactive: 0.998
CC(CCC(=O)O)C1CCC2C3CCC4CC(O)CCC4(C)C3CC(O)C12C (centres undefined)	inactive: 0.859
COc1ccc([C@@H]([C@H](Cc2ccccc2)OC(C)=O)N2C[C@@H](CC(=O)N(C)C)[C@H]3[C@@H]([C@@H]2Cc2ccccc2)N(C)O[C@@H]3c2ccccc2)cc1	inactive: 1.03
C[C@@H]1CN([C@H](C)CO)C(=O)c2cccc(NC(=O)Nc3ccc(F)cc3)c2O[C@@H]1CN(C)Cc1ccc(C(F)(F)F)cc1	inactive: 1.01
C[C@@H]1CCCCO[C@H](CN(C)C(=O)CCC(F)(F)F)[C@H](C)CN([C@H](C)CO)C(=O)c2cc(NC(=O)Cc3ccccc3)ccc2O1	inactive: 0.992
COc1ccc(S(=O)(=O)Nc2cccc3c2O[C@@H](CN(C)C(=O)Nc2cccc4ccccc24)[C@@H](C)CN([C@@H](C)CO)C3=O)cc1	inactive: 0.994
CC1=CC(=O)C2C(C)(C)CCCC2(C)C1(O)CCc1ccoc1 (centres undefined)	inactive: 1.03
C[C@@H]1CCCCO[C@@H](CN(C)Cc2ccccc2)[C@@H](C)CN([C@H](C)CO)C(=O)c2cc(NS(=O)(=O)c3ccc(Cl)cc3)ccc2O1	inactive: 0.996
CC(=O)N1[C@H](CNC(=O)CN2CCOCC2)[C@@H](c2ccccc2)[C@@H]1CO	inactive: 1.01
C[C@H]1CN([C@@H](C)CO)C(=O)CCCn2cc(nn2)CO[C@@H]1CN(C)C(=O)C1CC1	inactive: 1.04
COc1ccc(NC(=O)N(C)C[C@H]2OCCCC[C@H](C)Oc3ccc(NS(=O)(=O)c4c(C)noc4C)cc3C(=O)N([C@@H](C)CO)C[C@H]2C)cc1	inactive: 0.984
Cc1ccc(-c2ccc3c(c2)O[C@H](CN(C)C(=O)CN(C)C)[C@H](C)CN([C@H](C)CO)S3(=O)=O)cc1	inactive: 0.97
C[C@@H]1CN([C@H](C)CO)C(=O)c2cc(NC(=O)Cc3ccccc3)ccc2O[C@@H](C)CCCCO[C@H]1CN(C)C(=O)NC1CCCCC1	inactive: 0.982
C[C@H]1CCCCO[C@@H](CN(C)C(=O)CCC(F)(F)F)[C@@H](C)CN([C@@H](C)CO)C(=O)c2cc(NC(=O)C3CCCCC3)ccc2O1	inactive: 0.95
C[C@@H]1CN([C@@H](C)CO)C(=O)Cc2cc(NC(=O)Nc3ccccc3)ccc2O[C@@H]1CN(C)Cc1ccc(Cl)c(Cl)c1	inactive: 1.02

Structure (SMILES)	relative growth
C[C@@H]1CN([C@H](C)CO)C(=O)c2cc(NC(=O)NC3CCCCC3)ccc2O[C@@H](C)CCCCO[C@@H]1CN(C)C(=O)Nc1ccc(F)cc1	inactive: 1
CN(C)CCCC[C@@H]1NC(=O)[C@@H]2C[C@H](C(=O)NCCCCCCNC(=O)CS)[C@H](c3ccc(O)cc3)N2C1=O	inactive: 1
C[C@@H]1CN([C@H](C)CO)C(=O)c2cccc(NS(=O)(=O)c3cn(C)cn3)c2O[C@@H]1CN(C)Cc1ccccc1	inactive: 0.995
COc1ccc(S(=O)(=O)Nc2cccc3c2O[C@@H](CN(C)CC2CC2)[C@H](C)CN([C@H](C)CO)C3=O)cc1	inactive: 0.994
Cc1ncc(CSSCc2cnc(C)c(O)c2CO)c(CO)c1O	inactive: 1.13
OC[C@H]1O[C@@H](Nc2ccccn2)[C@@H](O)[C@@H](O)[C@@H]1O	inactive: 1.01
Cc1noc(C)c1NC(=O)Nc1ccc2c(c1)C(=O)N([C@H](C)CO)C[C@@H](C)[C@@H](CN(C)Cc1ccccc1)OCCCC[C@H](C)O2	inactive: 1.04
C[C@H](CO)N1C[C@H](C)[C@@H](CN(C)S(=O)(=O)c2cccs2)Oc2ccc(NC(=O)Cn3cnnn3)cc2CC1=O	inactive: 1
C[C@H](CO)N1C[C@H](C)[C@H](CN(C)S(=O)(=O)c2cn(C)cn2)Oc2ccc(NC(=O)CCN3CCOCC3)cc2C1=O	inactive: 1.02
CC(=O)NCC(=O)N1C[C@H](N(C)Cc2cncnc2)[C@@H]2OCCC[C@@H]21	inactive: 1
C[C@@H]1CCCCO[C@H](CN(C)C(=O)Nc2ccc(C(F)(F)F)cc2)[C@@H](C)CN([C@H](C)CO)C(=O)c2cc(NC(=O)Cc3ccccc3)ccc2O1	inactive: 1.04
COc1ccc(CNC(=O)c2cc3c(c(-c4cccc(-c5cccc(C#N)c5)c4)n2)[C@@H](CCO)N([S@](=O)C(C)(C)C)C3)cc1	inactive: 0.975
C[C@@H]1CN([C@@H](C)CO)C(=O)c2cc(NC(=O)Cn3cnnn3)ccc2O[C@@H]1CN(C)S(=O)(=O)c1ccc(Cl)cc1	inactive: 1
CC[C@H](C)n1ncn(-c2ccc(N3CCN(c4ccc(OC[C@H]5CO[C@](Cn6cncn6)(c6ccc(Cl)cc6Cl)O5)cc4)CC3)cc2)c1=O	inactive: 1.04
CO[C@H]1CN(C)C(=O)c2cc(NC(=O)C3CC3)ccc2OC[C@@H](C)N(C(=O)Cc2ccccn2)C[C@H]1C	inactive: 0.972
C[C@H](CO)N1C[C@H](C)[C@@H](CN(C)Cc2ccc(-c3ccccc3)cc2)Oc2ccc(NC(=O)Cc3cn(C)c4ccccc34)cc2CC1=O	inactive: 0.985
Cc1noc(C)c1NC(=O)N(C)C[C@@H]1Oc2ncc(C#CCC(C)C)cc2C(=O)N([C@@H](C)CO)C[C@H]1C	inactive: 0.966
C[C@H](CO)N1C[C@H](C)[C@H](CN(C)C(=O)C2CCOCC2)Oc2ncc(C#CCc3ccccc3)cc2C1=O	inactive: 0.963
C[C@@H]1CN([C@@H](C)CO)C(=O)c2cc(NC(=O)Nc3ccccc3)ccc2O[C@H]1CN(C)Cc1ccc(Oc2ccccc2)cc1	inactive: 0.931
C[C@@H]1CN([C@H](C)CO)C(=O)Cc2cc(NC(=O)Nc3cccc4ccccc34)ccc2O[C@@H]1CN(C)Cc1ccc2c(c1)OCO2	inactive: 0.984

Structure (SMILES)	relative growth
C[C@@H]1CN([C@H](C)CO)C(=O)Cc2cc(NS(=O)(=O)c3cccs3)ccc2O[C@@H]1CN(C)S(=O)(=O)c1ccc(F)cc1	inactive: 0.889
CNC(=O)c1ccccc1N	inactive: 1
COc1ccc(CNC(=O)C[C@H]2C[C@H]3c4cc(NS(=O)(=O)c5ccc(F)cc5)ccc4O[C@H]3[C@@H](CO)O2)cc1	inactive: 1.03
NC(=O)CC(N)C(=O)O.O (centres undefined)	inactive: 0.956
Cc1ccc(S(=O)(=O)Nc2ccc3c(c2)C(=O)N([C@H](C)CO)C[C@H](C)[C@H](CN(C)S(=O)(=O)c2c(C)noc2C)O3)cc1	inactive: 0.992
CC(C)NC(=O)N(C)C[C@@H]1OCCCC[C@@H](C)Oc2ccc(NS(=O)(=O)c3cn(C)cn3)cc2C(=O)N([C@H](C)CO)C[C@H]1C	inactive: 0.973
COc1ccc(NC(=O)N(C)C[C@@H]2OCCCC[C@H](C)Oc3ccc(NC(=O)c4ccncc4)cc3C(=O)N([C@@H](C)CO)C[C@H]2C)cc1	inactive: 0.985
OCCN1CCN(c2ncnc3c2ncn3[C@H]2CN(Cc3cccc(C(F)(F)F)c3)C[C@@H](CO)O2)CC1	inactive: 0.957
CNCc1nncn1C(C)C	inactive: 1
CC(=O)Oc1cccc2c1C(=O)c1c(OC(C)=O)cc(C(=O)O)cc1C2=O	inactive: 0.976
Cc1ncc([N+](=O)[O-])n1C[C@@H](O)CCl	inactive: 0.995
Cc1noc(C)c1S(=O)(=O)N(C)C[C@@H]1Oc2ccc(NC(=O)Cc3cn(C)c4ccccc34)cc2CC(=O)N([C@H](C)CO)C[C@@H]1C	inactive: 1.01
C[C@@H]1CCCCO[C@@H](CN(C)S(=O)(=O)c2ccc(Cl)cc2)[C@H](C)CN([C@@H](C)CO)C(=O)c2cc(NC(=O)Nc3ccccc3)ccc2O1	inactive: 1.04
Cc1noc(C)c1S(=O)(=O)Nc1ccc2c(c1)C(=O)N([C@@H](C)CO)C[C@H](C)[C@H](CN(C)C)OCCCC[C@@H](C)O2	inactive: 0.931
C[C@@H]1CCCCO[C@@H](CN(C)Cc2ccncc2)[C@@H](C)CN([C@H](C)CO)C(=O)c2cc(NC(=O)Nc3ccc(C(F)(F)F)cc3)ccc2O1	inactive: 1.04
Cc1noc(C)c1NC(=O)Nc1ccc2c(c1)C(=O)N([C@@H](C)CO)C[C@H](C)[C@@H](CN(C)Cc1ccc(Oc3ccccc3)cc1)O2	inactive: 1
C=CCOC(=O)[C@@H]1[C@H]2C(=O)O[C@H](c3ccccc3)[C@H](c3ccccc3)N2[C@H](c2ccc(OCCOC(=O)[C@@H]3C[C@@H]4C(=O)N5CCC[C@H]5C(=O)N4[C@@H]3c3ccc(O)cc3)cc2)[C@@]12C(=O)Nc1ccccc12	inactive: 1.06
Cc1ccccc1S(=O)(=O)N1C[C@H](O)COC[C@H]2O[C@@H](CC(=O)NCc3ccccc3Cl)CC[C@@H]21	inactive: 0.991
Nc1ccn([C@@H]2CS[C@H](CO)O2)c(=O)n1	inactive: 0.988
